Measured values from the supplement of paper PMC10670038.
Counter-ions that a name gives are not always drawn. ± gives the standard deviation of the averaged measurements. Whole data set: some 2,000 compounds, median “relative cell viability vs DMSO, compound + 0.2 uM CuET” near 1, cut for the lowest 2% near 0.25. This is one part of the list.

The molecules below were run on TE10 (assay: relative cell viability vs DMSO, compound + 0.2 uM CuET (fraction); TE10 is an esophageal squamous carcinoma line; higher = less cytotoxic). Details: 2 µM; co-treatment: CuET (bis(diethyldithiocarbamate)copper) 0.2 uM; 48 h.
Procedure: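 TE10 ESCC cells (1,000/well, 384-well plates) were treated with Selleck bioactive library compounds at 2 uM combined with 0.2 uM CuET (copper diethyldithiocarbamate) for 48 h. Viability was read by CellTiter-Glo and expressed relative to DMSO wells. Two technical replicates (A, B).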

| Structure (SMILES) | relative cell viability |
| --- | --- |
| Cc1nc2ccc(NC(=O)Nc3ccnc4cccnc34)cc2o1 | 1.17 ± 0.028 |
| Oc1nc(-c2ccc(C(F)(F)F)cc2)nc2c1CSCC2 | 1.28 ± 0.055 |
| NC1=NCC2c3ccccc3Cc3ccccc3N12 (stereo unspecified) [Epinastine HCl] | 1.22 ± 0.0069 |
| NC(=O)N1c2ccccc2CC(=O)c2ccccc21 [Oxcarbazepine] | 1.19 ± 0.079 |
| CC1(C)O[C@@H]2[C@@H](CO[C@@]3(COS(N)(=O)=O)OC(C)(C)O[C@@H]23)O1 [Topiramate] | 1.43 ± 0.061 |
| COc1cc(NS(=O)(=O)c2ccc(N)cc2)nc(OC)n1 [Sulphadimethoxine] | 1.14 ± 0.038 |
| CCNc1nc(Nc2cc(F)c(C(=O)N3CCOCC3)cc2OC)ncc1C(F)(F)F | 1.15 ± 0.28 |
| O=C1N=C(O)NC1(c1ccccc1)c1ccccc1 [Phenytoin sodium] | 0.961 ± 0.045 |
| COc1ccc(OC)c(C2C(C#N)=C(N)Oc3n[nH]c(-c4ccc5ccccc5c4)c32)c1 (stereo unspecified) | 1.06 ± 0.048 |
| Cc1ccc(Cl)cc1N(CC(=O)Nc1c(F)cccc1F)S(C)(=O)=O | 1.17 ± 0.055 |
| NS(=O)(=O)c1ccc(NC(=O)Nc2ccc(F)cc2)cc1 | 1.2 ± 0.12 |
| S=c1[nH]cnc2nc[nH]c12 [Mercaptopurine (6-MP)] | 0.915 ± 0.12 |
| CN(Cc1ccc(C(C)(C)C)cc1)Cc1cccc2ccccc12 [Butenafine HCl] | 1.023 ± 0.0027 |
| CN1CC[C@@H](c2c(O)cc(O)c3c(=O)cc(-c4ccccc4Cl)oc23)[C@@H]1CO | 0.7 ± 0.044 |
| O=C(NCCCNc1nc(Nc2cccc(NC(=O)N3CCCC3)c2)ncc1I)c1cccs1 | 1.06 ± 0.21 |
| Cc1cccc(-c2[nH]ncc2-c2ccc3ncccc3n2)n1 | 1.04 ± 0.0027 |
| CC(C)n1cnc2c(NCCc3ccc(O)cc3)nc(-c3csc4ccccc34)nc21 [StemRegenin 1 (SR1)] | 1.26 ± 0.12 |
| Cc1nc2c(O)cccc2c(=O)[nH]1 | 1.34 ± 0.054 |
| O=C(NNc1ccccc1)c1ccncc1 | 1.06 ± 0.18 |
| Cc1cc(C#N)cc(C)c1Oc1nc(Nc2ccc(C#N)cc2)nc(N)c1Br [Etravirine (TMC125)] | 0.862 ± 0.023 |
| Cn1cncc1[C@@](N)(c1ccc(Cl)cc1)c1ccc2c(c1)c(-c1cccc(Cl)c1)cc(=O)n2C [Tipifarnib] | 0.888 ± 0.059 |
| O=c1[nH]c(=O)n([C@H]2C[C@H](O)[C@@H](CO)O2)cc1C(F)(F)F [Trifluridine] | 1.08 ± 0.047 |
| Cc1cc(F)c(Nc2ncnc3cc(OCc4ccccc4)ccc23)cc1O | 0.92533 ± 0.00026 |
| N#CC(=Cc1ccc(-c2cc(Cl)ccc2Cl)o1)C(=O)Nc1cccc2ncccc12 | 1.06 ± 0.03 |
| CCCC(=O)Nc1cccc(NC(=O)c2ccccc2Br)c1 | 1.01 ± 0.16 |
| CO[C@H]1C[C@@H]2CC[C@@H](C)[C@@](O)(O2)C(=O)C(=O)N2CCCC[C@H]2C(=O)O[C@H]([C@H](C)C[C@@H]2CC[C@H](n3cnnn3)[C@H](OC)C2)CC(=O)[C@H](C)/C=C(\C)[C@@H](O)[C@@H](OC)C(=O)[C@H](C)C[C@H](C)/C=C/C=C/C=C/1C [Zotarolimus(ABT-578)] | 0.902 ± 0.034 |
